Laboratory results taken from PubChem BioAssay AID504466 (National Center for Advancing Translational Sciences (NCATS), 2011).
Where “and” joins values, the source holds several entries; their conditions need not be identical. Identical values can stand only once. Screen size: about 330,000 compounds; about 4,200 (1.3%) were called active. This list was built around the results that the source calls inconclusive (neither active nor inactive); the mix of calls is not that of the screen. Calls follow the shape of the dose curve; as a rule, active = well fitted activation curve with a large enough effect; inconclusive = small, poorly fitted or top-dose-only effect; inactive = no such curve, though single readings can be large or run the other way. Potencies beside an inconclusive call are fits to weak or partial responses and may not hold up.

Test: qHTS screen for small molecules that induce genotoxicity in human embryonic kidney (HEK293T) cells expressing luciferase-tagged ELG1; also: nearly all actives have a fitted effect of over 60% in size; as to activity change, positive = activation: % of control where 0% means no effect
Conditions: HEK293T ELG1-luciferase reporter, luminescence, 16 h; series mostly up to 46 µM; activity change, positive = activation: at the top concentration
Method in brief: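 Genotoxic stress is detected as increased luminescence from luciferase-tagged ELG1 in HEK293T cells, measured with ONE-Glo after a 16 hr treatment at 37 °C.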
Potency is read from the fitted curve at half-maximal effect; tags tell the direction and shape of the fitted curve.

SMILES | Potency | activity change, positive = activation
COC(=O)c1ccc(COc2ccc3c(c2)CCC3)o1 | inconclusive: 10.3 µM [activator, partial curve, poor fit] | –
CN(C)S(=O)(=O)c1ccc(C(=O)OC2CCOC2=O)cc1 (configuration not stated) | – | inactive: 2.27%
COc1ccc(C(=O)COC(=O)c2ccccc2O)c(OC)c1 | inconclusive: 4.61 µM [activator, single point] | –
Cc1cc(C)n(-c2ccc(C(=O)OCC(=O)N3CCN(c4ccccc4)CC3)cc2)n1 | – | inactive: -1.32%
Cc1cccc(OCC(=O)O/N=C(\N)c2ccccn2)c1 | inconclusive: 18.4 µM [activator, partial curve] | –
COc1cccc(/C=N/NC(=O)c2cc3c(OC)c(OC)ccc3[nH]2)c1OC | – | inactive: 3.51%
COc1ccc(-n2nc(C(=O)NCC(=O)NCCC3=CCCCC3)c3ccccc3c2=O)cc1OC | – | inactive: -6.4%
COc1ccc(-c2nn(-c3ccccc3)cc2C(=O)Nc2ccc(C(=O)O)cc2)cc1OC | – | inactive: 16%
Cc1ccc(C)c(OCCC(=O)N2CCN(S(=O)(=O)c3cc(C)ccc3C)CC2)c1 | inconclusive: 16.4 µM [activator, partial curve, poor fit] | –
Cc1cc(C)cc(C(=O)NC(=S)Nc2ccc(-c3cc4ccccc4oc3=O)cc2)c1 | inconclusive: 18.4 µM [activator, partial curve, poor fit] | –
Cc1ccc(CN(C)C(=O)C2CCC(=O)N(CCc3ccccc3)C2)o1 (configuration not stated) | – | inactive: 14.1%
O=C1C2C3C=CC(C3)C2C(=O)N1c1ccc2ccccc2n1 (configuration not stated) | – | inactive: 0.624%
CCN(Cc1ccccc1)C(=O)c1cc(COc2c(F)cccc2F)on1 | – | inactive: -0.0663%
OCCC1CN(Cc2cnc(-c3ccc(Cl)cc3)nc2)CCN1C1CCCCC1 (configuration not stated) | inconclusive: 32.6 µM [activator, partial curve, poor fit] | –
Oc1csc(Cc2nc(-c3ccc(Br)cc3)cs2)n1 | inconclusive: 6.51 µM [activator, single point] | –
O=C(NCc1cccc(F)c1)c1noc2c1CCCC2 | inconclusive: 20.6 µM [activator, single point] | –
CSc1ccc(/C=N/NC(=O)c2cccs2)cc1 | inconclusive: 2.31 µM [activator, full curve] | –
Fc1ccc(N/N=C/c2cccnc2)c(F)c1 | inconclusive: 13 µM [activator, partial curve, poor fit] | –
Cc1cc(C)c(C#N)c(SCC(=O)Nc2nonc2N)n1 | inconclusive: 20.6 µM [activator, partial curve, poor fit] | –
Cc1ccc(N/C=C(\C#N)c2ccc(OCCCF)cc2)cc1 | inconclusive: 32.6 µM [activator, partial curve, poor fit] | –
O=C(COC(=O)CNC(=O)c1cccc([N+](=O)[O-])c1)Nc1cccc(S(=O)(=O)N2CCCC2)c1 | – | inactive: -0.165%
CCN(C(=O)c1cc2ccccc2oc1=O)c1ccccc1 | active: 9.2 µM | –
Cc1ccc(NC(=O)C(C)OC(=O)CCC2CCCCC2)cc1 (configuration not stated) | – | inactive: -1.4%
O=C(COc1ccccc1)Nc1ccccc1NS(=O)(=O)c1cccs1 | – | inactive: -1.59%
CC(C)CC1NC(=O)N(CC(=O)Nc2cc(S(=O)(=O)N3CCOCC3)ccc2Cl)C1=O (configuration not stated) | – | inactive: 0.336%
Cc1ccc(C(=O)CSc2nnc3ccccn23)c(C)c1 | active: 4.61 µM | –

SMILES | Potency | activity change, positive = activation
Cc1cccc(C(=O)Nc2nnc(SCC(=O)NC3CC3)s2)c1 | inconclusive: 14.6 µM [activator, single point] | –
NC(=O)C1CCN(C(=O)c2ccc3nc(N4CCCCC4)sc3c2)CC1 | inconclusive: 20.6 µM [activator, partial curve, poor fit] | –
OCC[C@H]1C[C@@H](O)[C@H](O)[C@]2(Cc3ccccc3CO2)O1 | – | inactive: 2.63%
O=C(COc1cccc(C(F)(F)F)c1)Nc1ccccc1N1CCCCC1 | inconclusive: 23.1 µM [activator, single point] | –
O=C(CN1CCC(n2nnc3cc(F)ccc32)CC1)N1CCc2ccccc2C1 | – | inactive: -4.88%
Cc1cc(C)nc(NC2=NCC(=O)N2c2ccccc2)n1 | – | inactive: -1.22%
COc1ccc(C(=O)Nc2ccnn2C2CCN(C(=O)c3cccnc3)CC2)cc1 | – | inactive: -0.417%
Cc1cc(C(=O)COC(=O)C2CC2)c(C)n1-c1ccc(F)cc1 | active: 2.59 µM | –
Cc1cc(C)cc(C(=O)OCC(=O)NCCNC(=O)COC(=O)c2cc(C)cc(C)c2)c1 | inconclusive: 20.6 µM [activator, single point] | –
COc1ccc(-c2noc(N3CCC(C(=O)NC(C)c4ccccc4)CC3)n2)cc1 (configuration not stated) | – | inactive: -2.34%
CCN(c1cccc(C)c1)S(=O)(=O)c1ccc2c3c(cccc13)C(=O)N2 | – | inactive: -3.14%
CSc1nc(N)nc2c1ncn2CC(=O)NCCCN1CCCC1=O | – | inactive: 0.63%
Oc1cc(-n2cccn2)c(O)cc1-n1cccn1 | inconclusive: 32.6 µM [activator, partial curve, poor fit] | –
O=C(c1ccc(Cl)cc1)c1cnc2ccccn12 | active: 11.6 µM | –
O=C(Nc1ccccc1N1CCCCC1)c1ccc(OC(F)F)cc1 | – | inactive: -0.446%
CC(C)C(NC(=O)C1CCCCC1)C(=O)Nc1ccc2c(c1)OCCO2 (configuration not stated) | inconclusive: 16.4 µM [activator, partial curve, poor fit] | –
Cc1nn(-c2ccccc2)c2sc(-c3nnc(SCC(=O)O)o3)cc12 | – | inactive: 15.3%
COc1ccc(NC(=O)N2CCCCC2)cc1 | inconclusive: 23.1 µM [activator, single point] | –
CCOC(=O)c1cnc(-c2ccccc2)nc1N(C)C | active: 11.2 µM | –
CC(C)CCNC(=O)c1ccc(Cl)c(NC(=O)Cc2ccccc2)c1 | – | inactive: -0.588%
O=C1N/C(=N\c2ccccn2)SC1Cc1ccccc1Cl (configuration not stated) | inconclusive: 18.3 µM [activator, single point] | –
Cc1c2ccccc2nc2c(F)c(N(C)C)c(F)c(F)c12 | inconclusive: 23.1 µM [activator, partial curve, poor fit] | –
Cc1cc([N+](=O)[O-])nn1CC(=O)N1c2ccccc2CC1C (configuration not stated) | – | inactive: 1.41%
C[C@@H]1NC(=O)N(CCCn2ccnc2)C1=O | – | inactive: -1.89%
Cc1ccc(Cl)cc1N1CCN(C(=O)C2CCN(S(=O)(=O)c3c(C)nn(C)c3C)CC2)CC1 | – | inactive: -10.3%
COc1cc(NS(=O)(=O)c2ccc(C)cc2)ccc1-n1cnnn1 | inconclusive: 29.1 µM [activator, single point] | –

SMILES | Potency | activity change, positive = activation
Cc1cc(=O)oc2cc(NC(=O)c3c(Cl)cnn3C)ccc12 | inconclusive: 20.6 µM [activator, single point] | –
CCCSc1nnc(-c2c[nH]c3ccccc23)n1C | inconclusive: 25.9 µM [activator, single point] | –
O=C(COC(=O)c1cccc(O)c1)c1ccccc1 | inconclusive: 23.1 µM [activator, partial curve, poor fit] | –
Clc1ccc2nc(CSc3ccccc3)cn2c1 | active: 0.82 µM | –
CCOc1cc(-c2nc3ccccc3s2)ccc1O | inconclusive: 23.1 µM [activator, partial curve, poor fit] | –
S=C(NCCc1ccccc1)NN=C1CCCCCC1 | inconclusive: 11.6 µM [activator, partial curve] | –
O=C(NC1CCCC1)c1cc(-c2ccc(Cl)c(Cl)c2)on1 | inconclusive: 20.6 µM [activator, partial curve] | –
CCCCOC(=O)c1ccc(NC(=O)c2cc(Cl)c(Cl)cc2C(=O)O)cc1 | – | inactive: 4.47%
Cn1cccc1-c1nc2ccc(NC(=O)c3ccccc3)cc2[nH]1 | inconclusive: 18.4 µM [activator, single point] | –
COc1ccc(-c2cn3nc(SCC(=O)NC4CCCCC4)ccc3n2)cc1 | inconclusive: 2.59 µM [activator, partial curve] | –
COC(=O)c1sc(NC(=O)c2ccc(C)o2)nc1C | inconclusive: 18.4 µM [activator, partial curve] | –
COc1ccc(/C=C2\CCc3ccccc3C2=O)cc1O | active: 3.66 µM | –
O=C(Nc1nnc(-c2ccc(F)cc2)o1)c1cc(Cl)sc1Cl | inconclusive: 32.6 µM [activator, partial curve, poor fit] | –
O=C(c1ccco1)N1CCN(C(=O)N2CCOCC2)CC1 | – | inactive: 0.81%
Cc1cc2ncn(CCOc3ccccc3)c2cc1C | inconclusive: 10.3 µM [activator, partial curve, poor fit] | –
Cc1sc2ncn(CC(=O)NCCCC(=O)NCc3ccc(F)cc3)c(=O)c2c1C | inconclusive: 29.1 µM [activator, single point] | –
COc1ccc(C/C(=N\OC(C)=O)c2ccc(OC)cc2)cc1 | – | inactive: 0.677%
COc1ccc(NC(=O)CSc2nnc(C)s2)cc1S(=O)(=O)N1CCOCC1 | – | inactive: 2.69%
COc1ccc(NC(=O)/C=C/c2cccc(F)c2)cn1 | inconclusive: 4.61 µM [activator, full curve] | –
COc1cccc(CNC(=O)CCC2CCCN(c3cc(C)nc(N)n3)C2)c1 (configuration not stated) | – | inactive: -2.37%
COC(=O)c1c(NC(=O)CSc2nnc(C)c(=O)[nH]2)sc(C)c1C | inconclusive: 0.259 µM [activator, full curve, poor fit] | –
CCn1cc(CNCc2cn(C)nc2-c2ccc(C3CCCCC3)cc2)cn1 | – | inactive: -0.268%
Cc1ccc(SCC(=O)Nc2ccc3c(c2)OCCO3)cc1 | inconclusive: 5.8 µM [activator, partial curve] | –
CCCCn1c(N)c(N(CC(C)C)C(=O)c2ccc(-c3ccc(C(C)=O)cc3)o2)c(=O)[nH]c1=O | inconclusive: 25.9 µM [activator, single point] | –
Oc1ccc(COCc2ccccc2)c2cccnc12 | active: 20.6 µM and active: 8.2 µM | –
